Data taken from patent publication US20090270431A1, “Cyclopentenol Nucleoside Compounds Intermediates for their Synthesis and Methods of Treating Viral Infections” (THE UNIVERSITY OF GEORGIA RESEARCH FOUNDATION, priority 2005, published 2009).
Read-outs that look alike come from different tables or passages of the source.

Tests used:
Experiment in all cases: microbe, parasite or virus in culture
Assay type in all cases: cell-based
HBV strain M2041 = system: HBV strain M2041
HBV strain M204V = system: HBV strain M204V
HBV strain N236T = system: HBV strain N236T
HBV strain LM/MV = system: HBV strain LM/MV
HBV strain L180M = system: HBV strain L180M
[1] = HBV strain M2041, read-out: EC50
[2] = HBV strain M2041, read-out: EC90
[3] = HBV strain M204V, read-out: EC50
[4] = HBV strain M204V, read-out: EC90
[5] = HBV strain N236T, read-out: EC50
[6] = HBV strain N236T, read-out: EC90
[7] = HBV strain LM/MV, read-out: EC50
[8] = HBV strain LM/MV, read-out: EC90
[9] = HBV strain L180M, read-out: EC50

Compound	EC50 (HBV strain M2041; [1])	EC90 (HBV strain M2041; [2])	EC50 (HBV strain M204V; [3])	EC90 (HBV strain M204V; [4])	EC50 (HBV strain N236T; [5])	EC90 (HBV strain N236T; [6])	EC50 (HBV strain LM/MV; [7])	EC90 (HBV strain LM/MV; [8])	EC50 (HBV strain L180M; [9])	EC50 (HBV strain M2041; Hepatitis B virus)	EC90 (HBV strain M2041; Hepatitis B virus)	EC50 (HBV strain M204V; Hepatitis B virus)	EC90 (HBV strain M204V; Hepatitis B virus)	EC50 (HBV strain N236T; Hepatitis B virus)	EC90 (HBV strain N236T; Hepatitis B virus)	EC50 (HBV strain LM/MV; Hepatitis B virus)	EC90 (HBV strain LM/MV; Hepatitis B virus)	EC50 (HBV strain L180M; Hepatitis B virus)	EC90 (HBV strain L180M; Hepatitis B virus)	EC90 (HBV strain L180M; HBV strain L180M, read-out: EC90)
Nc1ccn([C@@H]2CS[C@H](CO)O2)c(=O)n1 [Compound 3TC]	> 100 µM	> 100 µM	> 100 µM	> 100 µM	0.3 µM	0.8 µM	> 100 µM	> 100 µM	10 µM	–	–	–	–	–	–	–	–	–	–	–
C#Cc1cn([C@@H]2C=C(CO)C(O)C2O)c2ncnc(N)c12 (some centres unmarked) [Compound 27, 7-Deaza-7-Acetylene-Neplanocin A]	–	–	–	–	–	–	–	–	–	3 µM	9.5 µM	2.1 µM	8.9 µM	5.6 µM	16 µM	2.8 µM	9 µM	2 µM	8.2 µM	–
CC(C)(C)C(=O)OCOP(=O)(COCCn1cnc2c(N)ncnc21)OCOC(=O)C(C)(C)C [ADV]	1.8 µM	7 µM	1.5 µM	6.3 µM	7.7 µM	30 µM	1.2 µM	6.1 µM	1.6 µM	–	–	–	–	–	–	–	–	–	–	6.8 µM
